Data taken from article PMC6556028.
No constants are given. Whether binding was seen depends on the method and setting. Binding seen in cells or lysates may run through a third protein. Some binding calls cover weakened binding; strength is not graded here. For some of these results: Sequences can lack the tags named with a protein.

By UniProt entry, the sequences of proteins in these tests, tags left out.
UniProt P35222: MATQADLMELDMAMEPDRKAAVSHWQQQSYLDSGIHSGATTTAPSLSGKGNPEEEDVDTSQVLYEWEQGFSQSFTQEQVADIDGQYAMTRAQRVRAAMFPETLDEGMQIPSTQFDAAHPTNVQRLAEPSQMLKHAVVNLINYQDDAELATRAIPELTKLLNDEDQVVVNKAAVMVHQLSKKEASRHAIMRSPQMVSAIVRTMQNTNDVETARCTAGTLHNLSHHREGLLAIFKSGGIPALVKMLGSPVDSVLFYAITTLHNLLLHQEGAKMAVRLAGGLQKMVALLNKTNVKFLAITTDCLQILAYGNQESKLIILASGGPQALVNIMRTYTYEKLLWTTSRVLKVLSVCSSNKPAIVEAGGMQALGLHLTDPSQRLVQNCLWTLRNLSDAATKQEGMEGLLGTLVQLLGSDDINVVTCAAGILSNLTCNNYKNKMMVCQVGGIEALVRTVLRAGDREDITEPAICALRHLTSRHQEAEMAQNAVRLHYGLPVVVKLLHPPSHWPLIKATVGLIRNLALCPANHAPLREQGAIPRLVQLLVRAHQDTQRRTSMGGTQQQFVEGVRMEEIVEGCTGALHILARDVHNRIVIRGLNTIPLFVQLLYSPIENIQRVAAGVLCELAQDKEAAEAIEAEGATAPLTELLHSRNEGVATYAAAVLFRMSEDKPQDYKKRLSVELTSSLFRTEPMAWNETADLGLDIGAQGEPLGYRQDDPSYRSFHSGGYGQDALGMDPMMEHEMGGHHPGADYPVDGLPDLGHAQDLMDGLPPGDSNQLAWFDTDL
UniProt O15169: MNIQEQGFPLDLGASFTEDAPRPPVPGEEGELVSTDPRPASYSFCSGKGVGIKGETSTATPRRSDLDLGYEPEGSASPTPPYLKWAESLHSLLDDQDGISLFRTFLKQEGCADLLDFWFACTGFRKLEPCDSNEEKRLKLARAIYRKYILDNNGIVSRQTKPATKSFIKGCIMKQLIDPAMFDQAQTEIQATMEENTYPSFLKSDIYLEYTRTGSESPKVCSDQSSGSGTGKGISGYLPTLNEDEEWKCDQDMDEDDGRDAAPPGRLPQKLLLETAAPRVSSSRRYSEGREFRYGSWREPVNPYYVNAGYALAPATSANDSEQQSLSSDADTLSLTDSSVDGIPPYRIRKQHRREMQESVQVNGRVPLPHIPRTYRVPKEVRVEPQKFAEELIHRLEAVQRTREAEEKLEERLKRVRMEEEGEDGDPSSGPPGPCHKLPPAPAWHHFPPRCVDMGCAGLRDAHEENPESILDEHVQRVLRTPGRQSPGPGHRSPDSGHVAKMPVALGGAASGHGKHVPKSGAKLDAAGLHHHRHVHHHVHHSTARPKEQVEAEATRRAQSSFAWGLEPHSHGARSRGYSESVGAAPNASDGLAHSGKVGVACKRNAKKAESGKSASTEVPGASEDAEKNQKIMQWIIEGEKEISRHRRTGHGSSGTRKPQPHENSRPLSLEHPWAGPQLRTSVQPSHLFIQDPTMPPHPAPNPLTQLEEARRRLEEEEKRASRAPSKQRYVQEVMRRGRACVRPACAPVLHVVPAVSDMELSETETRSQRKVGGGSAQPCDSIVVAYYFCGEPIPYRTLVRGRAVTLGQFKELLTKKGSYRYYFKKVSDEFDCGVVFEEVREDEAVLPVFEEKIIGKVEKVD
UniProt Q9NQB0: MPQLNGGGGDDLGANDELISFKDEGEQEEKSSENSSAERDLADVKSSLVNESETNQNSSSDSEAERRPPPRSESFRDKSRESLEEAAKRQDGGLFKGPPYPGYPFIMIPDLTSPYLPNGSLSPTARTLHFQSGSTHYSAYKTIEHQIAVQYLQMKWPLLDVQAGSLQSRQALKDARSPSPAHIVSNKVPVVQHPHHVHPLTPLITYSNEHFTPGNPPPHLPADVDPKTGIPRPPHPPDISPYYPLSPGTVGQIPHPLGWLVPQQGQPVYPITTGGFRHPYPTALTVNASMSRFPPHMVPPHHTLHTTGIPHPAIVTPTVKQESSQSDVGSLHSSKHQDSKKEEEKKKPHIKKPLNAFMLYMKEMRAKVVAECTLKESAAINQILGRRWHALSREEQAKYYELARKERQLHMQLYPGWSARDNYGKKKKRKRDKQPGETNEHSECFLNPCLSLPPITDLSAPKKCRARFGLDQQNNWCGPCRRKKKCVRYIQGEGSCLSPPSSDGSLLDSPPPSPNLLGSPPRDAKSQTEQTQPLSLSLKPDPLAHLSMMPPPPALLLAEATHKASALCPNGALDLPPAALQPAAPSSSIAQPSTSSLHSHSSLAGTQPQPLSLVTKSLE
UniProt P49841: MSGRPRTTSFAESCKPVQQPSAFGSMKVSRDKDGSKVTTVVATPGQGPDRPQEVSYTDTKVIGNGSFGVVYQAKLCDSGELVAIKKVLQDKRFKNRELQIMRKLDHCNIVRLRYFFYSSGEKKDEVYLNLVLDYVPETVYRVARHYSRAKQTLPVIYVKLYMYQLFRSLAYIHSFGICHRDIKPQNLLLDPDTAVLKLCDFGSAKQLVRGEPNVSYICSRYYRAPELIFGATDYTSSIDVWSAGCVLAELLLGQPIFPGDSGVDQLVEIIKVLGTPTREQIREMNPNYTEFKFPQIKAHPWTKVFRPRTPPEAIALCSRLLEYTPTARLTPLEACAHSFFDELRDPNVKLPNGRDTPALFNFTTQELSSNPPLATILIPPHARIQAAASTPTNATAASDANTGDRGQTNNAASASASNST

Assays:
[1] = molecular target: T1, Nek2B (NIMA-related kinase 2, spliced isomer B), endogenous (human (endogenous in Hs578T)) (UniProt P51955); assay: co-IP; endogenous proteins of Hs578T cell lysate; lysate incubated 4 h at 4 °C with antibody (Nek2B antibody in Fig. 7a) and protein A/G beads, washed with low salt lysis buffer, immunoblot
T1 sequence: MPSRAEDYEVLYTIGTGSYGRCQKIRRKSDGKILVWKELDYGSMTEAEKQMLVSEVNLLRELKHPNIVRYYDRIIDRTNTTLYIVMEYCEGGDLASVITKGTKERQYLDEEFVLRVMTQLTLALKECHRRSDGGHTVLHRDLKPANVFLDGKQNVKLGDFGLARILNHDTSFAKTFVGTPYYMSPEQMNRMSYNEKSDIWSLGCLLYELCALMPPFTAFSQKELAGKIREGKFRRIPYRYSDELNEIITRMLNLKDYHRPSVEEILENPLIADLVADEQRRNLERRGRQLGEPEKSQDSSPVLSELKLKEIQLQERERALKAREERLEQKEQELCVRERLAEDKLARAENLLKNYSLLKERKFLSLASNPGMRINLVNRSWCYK

[2] = molecular target: T1, Nek2B (NIMA-related kinase 2, spliced isomer B), endogenous (human (endogenous in Hs578T)); assay: co-IP; nuclear and cytoplasmic fractions of Hs578T cells (nucleoplasmic separation, NE-PER reagents), endogenous proteins; precipitating antibody not stated
[3] = molecular target: T2, FLAG-Nek2B (UniProt P51955); assay: co-IP; Hs578T cells transfected with HA-β-catenin and FLAG-Nek2B; FLAG tag used to precipitate Nek2B (anti-FLAG agarose, 4 h at 4 °C), immunoblot for β-catenin
T2 sequence: T1 sequence

Substance	binding [1]	binding [2]	binding [3]
β-catenin, endogenous (from UniProt P35222 1-781)	binds	binds	
Axin l, endogenous (from UniProt O15169 1-862)	no binding		
TCF4, endogenous (from UniProt Q9NQB0 1-619)	binds	binds	
GSK3β, endogenous (from UniProt P49841 1-420) (enzyme)	no binding		
HA-β-catenin (from UniProt P35222 1-781)			binds
